# Laboratory results reported in PubChem BioAssay (NCATS).
# The other results are listed elsewhere or left out. The main result of the screen is listed elsewhere. These columns were measured beside it and carry no call. Compounds called inactive in the main read-out are mostly missing here. The note in brackets gives the kind of curve behind each potency; many fits are weak.
# Assay: qHTS Assay for Lipid Storage Modulators (AID 1519)
# Settings: Drosophila S3 cells, BODIPY lipid droplet/cell ratio, laser cytometry, cells loaded with oleic acid
# Procedure, shortened: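 Cells seeded at 5,000 per well were treated with compounds over a concentration series and loaded with oleic acid (400 uM, as added). Lipid droplet fluorescence (488 nm excitation, 500-530 nm channel) was read by laser-scanning cytometry and normalized to 20 uM Triacsin C.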
# [1] = measured here: cell count channel max response
# [2] = measured here: lipid (BODIPY) channel AC50
# [3] = measured here: lipid channel max response
# [4] = measured here: cell number channel AC50
# Tags describe the fitted curve by direction and shape.
Compound,max response [1] [%],AC50 [2],max response [3] [%],AC50 [4]
Cn1cccc1C(=O)N1CCC2(CC1)CN(c1cccc(-c3ccccc3)c1)C2,-10.2,"15.8 µM [falling, partial curve, poor fit]",-59.3,–
CN(C)C(=O)c1ccc(-c2nccc(-n3ccnc3)n2)cc1,19.1,"0.708 µM [rising, full curve, poor fit]",24.1,–
CCNc1ncc2nc(-c3cccc(C#N)c3)c(=O)n(C)c2n1,-4.83,"0.0562 µM [rising, full curve, poor fit]",-25.6,–
Cn1cc(-c2nc3cnc(N4CCNCC4)nc3n(C3CC3)c2=O)c2ccccc21,0.518,"0.316 µM [rising, partial curve]",-16.5,–
C=C1c2cccc(O)c2C(O)=C2C(=O)[C@]3(O)C(O)=C(C(N)=O)C(=O)C(N(C)C)C3C(O)C12 (stereo not given in full),25.5,"28.2 µM [rising, single point]",48.7,–
CN(C)c1ccc(-c2cc(NCc3ccccc3)ncn2)cc1,-13.9,"39.8 µM [falling, single point]",-32.7,–
COCCn1c(=O)c(-c2ccc(F)cc2)nc2cnc(Nc3cccc(OC)c3)nc21,30.5,–,0.166,"39.8 µM [rising, single point]"
O=C(c1ccco1)N1CCC2(CCCN(Cc3ccncc3)C2)CC1,18.9,"3.98 µM [rising, partial curve, poor fit]",35.2,–
COc1cccc(Cn2c(=O)cnc3cnc(Nc4ccccc4)nc32)c1,46.6,–,-24.6,"12.6 µM [rising, partial curve]"
N#CCCn1c(=O)c(-c2cccc(C#N)c2)nc2cnc(Oc3cccc(Cl)c3)nc21,-29,"22.4 µM [falling, single point]",-37.7,–
COc1cc(O)c(C(=O)/C=C/c2ccc(O)c(OC)c2)c(OC)c1,19.5,"22.4 µM [rising, partial curve, poor fit]",30.9,–
O=c1c(-c2ccccc2)nc2cnc(N3CCOCC3)nc2n1CCc1ccccc1,11.4,"0.02 µM [rising, full curve, poor fit]",9.59,–
Cc1noc(C)c1-c1nccc(Nc2ccc(F)cc2)n1,6.92,"3.16 µM [rising, partial curve]",8.2,–
CC(=O)N1CCC2(CCCN(Cc3nccs3)C2)CC1,25.4,"3.55 µM [rising, full curve, poor fit]",34.5,–
CN(C)c1ccc(-c2nc(N3CCNCC3)c3ccccc3n2)cc1,21.5,"6.31 µM [rising, partial curve]",31.5,–
COc1ccc(Oc2ncc3nc(-c4ccc(F)cc4)c(=O)n(Cc4cccs4)c3n2)cc1,29.6,"1.26 µM [rising, partial curve]",37.8,–
COCCn1c(=O)c(-c2cccc(C#N)c2)nc2cnc(Nc3ccccc3)nc21,34.9,–,-46.2,"3.16 µM [rising, partial curve, poor fit]"
CCn1cc(C(=O)O)c(=O)c2cnc(N3CCCC3)nc21,18.9,"39.8 µM [rising, single point]",34.3,–
O=C(O)C(S)[C@@H](S)C(=O)O (stereo not given in full),18.5,"25.1 µM [rising, single point]",32.8,–
COc1ccc(-c2coc3cc(OC4OC(CO)C(O)C(O)C4O)cc(O)c3c2=O)cc1 (stereo not given),19.1,"8.91 µM [rising, partial curve, poor fit]",30.8,–
COCCn1c(=O)c(-c2cccs2)nc2cnc(Oc3ccc(OC)cc3)nc21,10.1,–,-9.64,"0.0224 µM [rising, full curve]"
CCNc1ncc2nc(C)c(=O)n(CCc3ccccc3)c2n1,17.9,"0.631 µM [rising, full curve]",24.6,–
CS(=O)(=O)N1CCC2(CC1)CN(c1ccc(-c3ccccc3)cc1)C2,5.05,"4.47 µM [rising, partial curve]",6.21,–
O=C(c1ccncc1)N1CCC2(CCCN(c3ncccn3)C2)CC1,16.8,"0.158 µM [rising, full curve, poor fit]",29.4,–
O=C(Nc1cccc(F)c1)N1CCCC2(CCN(C(=O)c3csnn3)CC2)C1,18.6,"0.0282 µM [rising, full curve, poor fit]",31.7,–
C[C@@](Cc1ccc(O)c(O)c1)(NN)C(=O)O,28.6,"22.4 µM [rising, partial curve, poor fit]",35.4,–
COCC(=O)N1CCC2(CC1)CN(Cc1ccccc1OC)C2,26.2,"39.8 µM [rising, single point]",38.8,–
O=C(c1ccncc1)N1CCC2(CCCN(c3ccc(-c4ccccc4)cc3)C2)CC1,12.7,"3.98 µM [rising, partial curve, poor fit]",16.1,–

Compound,max response [1] [%],AC50 [2],max response [3] [%],AC50 [4]
CCc1ccc(CCOc2ccc(CC3SC(=O)NC3=O)cc2)nc1 (stereo not given),25.6,"28.2 µM [rising, single point]",38.9,–
C[C@@](N)(Cc1ccc(O)c(O)c1)C(=O)O,27.1,"25.1 µM [rising, single point]",45.4,–
NCC1O[C@H](O[C@@H]2C(O)[C@H](O[C@H]3OC(CO)C(O)C(N)C3O)[C@@H](N)C[C@H]2N)[C@@H](N)CC1O (stereo not given in full),22.8,"28.2 µM [rising, single point]",38.8,–
N#Cc1cccc(NC(=O)N2CC[C@@]3(CCCN(C(=O)c4cc(C(F)(F)F)cc(C(F)(F)F)c4)C3)C2)c1,18.1,–,23,"3.55 µM [rising, single point]"
COc1ccc2[nH]cc(CCNc3ccnc(-c4ccccc4C(F)(F)F)n3)c2c1,6.02,"0.794 µM [rising, full curve, poor fit]",3.16,–
Cc1cccc(CNc2ncncc2-c2ccccc2C)c1,23.3,"0.0562 µM [rising, full curve, poor fit]",31.4,–
COCC(=O)N1CCC[C@@]2(CCN(Cc3nccs3)C2)C1,26.8,"17.8 µM [rising, single point]",40.1,–
O=C(O)[C@H]1C(=CCO)O[C@H]2CC(=O)N12,22.8,"20 µM [rising, single point]",31.8,–
COc1cc(S(C)=O)ccc1-c1nc2ncccc2[nH]1 (stereo not given),23,"15.8 µM [rising, partial curve, poor fit]",42.5,–
CN(C)c1cc(-c2cccc(NS(C)(=O)=O)c2)ncn1,27.6,"7.94 µM [rising, partial curve]",32.7,–
Cc1noc(C)c1-c1ccc2ncnc(N3CCC(C(=O)O)CC3)c2c1,29.8,"28.2 µM [rising, single point]",35.6,–
Cc1cc(=O)oc2cc(O)c(O)cc12,10.9,"3.16 µM [rising, full curve, poor fit]",26.4,–
CCNc1ncc2nc(C)c(=O)n(C[C@H]3CCCO3)c2n1,26.6,"3.16 µM [rising, partial curve, poor fit]",34.9,–
NS(=O)(=O)c1cccc2c1c([N+](=O)[O-])cc1[nH]c(=O)c(=O)[nH]c12,14.3,"0.00282 µM [falling, full curve, poor fit]",23.5,–
O=C(O)c1nc2cc(Cl)c(Cl)cc2[nH]c1=O,19.5,"0.316 µM [rising, full curve, poor fit]",33.4,–
O=c1c2cc(O)c(O)cc2oc2cc(O)c(C3OC(CO)C(O)C(O)C3O)c(O)c12 (stereo not given),17.7,"39.8 µM [rising, single point]",36.5,–
Cn1c(=O)c(-c2ccc(Cl)cc2)nc2cnc(N3CCNCC3)nc21,29.9,"25.1 µM [rising, single point]",36.1,–
COc1ccc2[nH]cc(CCNc3ncncc3-c3ccc4c(c3)OCO4)c2c1,-9.4,–,-23.6,"0.141 µM [rising, full curve]"
Fc1ccc(Nc2ccnc(-c3ccc4c(c3)OCO4)n2)cc1,15.9,"1 µM [rising, full curve]",23.7,–
O=c1c(-c2ccccc2)nc2cnc(Oc3cccc(Cl)c3)nc2n1C1CC1,15,–,11.5,"2.82 µM [rising, single point]"
CC1OC(OC2C(CO)OC(OC3C(CO)OC(O)C(O)C3O)C(O)C2O)C(O)C(O)C1NC1C=C(CO)C(O)C(O)C1O (stereo not given),7.56,"35.5 µM [rising, single point]",31.4,–
Cc1noc(C)c1-c1ccc2ncnc(N3CCOCC3)c2c1,23.1,"2.82 µM [rising, single point]",19.8,–
CN1CCN(c2ncncc2-c2cccnc2)CC1,17.5,–,17.7,"3.16 µM [rising, single point]"
COCCn1c(=O)c(-c2ccccc2)nc2cnc(Nc3ccccc3)nc21,1.7,"0.141 µM [rising, full curve, poor fit]",-3.81,–
COc1ccc(Oc2ncc3nc(-c4cccs4)c(=O)n(Cc4cccc(OC)c4)c3n2)cc1,51.8,–,-2.67,"1 µM [rising, full curve]"
Nc1ncn(C2OC(CO)C(O)C2O)c(=O)n1 (stereo not given),14.5,–,19.7,"3.16 µM [rising, partial curve, poor fit]"
CN(C)c1ncc2nc(-c3cccs3)c(=O)n(Cc3cccs3)c2n1,22,–,18.6,"0.562 µM [rising, full curve, poor fit]"
